Tests used:
[1] = molecular target: T1, EGFR expressed on A431 cells (human, UniProt P00533); assay: EGFR binding assay of Example 2 (biotinylated EGF to A431 cells); quantity not named in the column's head
T1 construct: whole, on cells; The assay text gives no species; also called epidermal growth factor receptor

VEGF-165 = molecular target: T2, VEGF-165 (human, UniProt P15692-4 27-191); assay: VEGF receptor 2 binding assay of Example 1 (competition ELISA, VEGF-165 to VEGF R2/Fc); quantity not named in the column's head
T2 construct: The assay text gives no species; also called vascular endothelial growth factor
T2 sequence (looked up): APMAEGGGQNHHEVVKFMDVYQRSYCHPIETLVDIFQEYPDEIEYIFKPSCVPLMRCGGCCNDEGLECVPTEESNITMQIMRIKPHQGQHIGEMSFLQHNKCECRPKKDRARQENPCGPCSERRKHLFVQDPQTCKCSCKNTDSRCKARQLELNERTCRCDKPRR

B1: DOM16-39-601 (VK)-LVTVSSGGGGSGGGS-DOM15-10 (VK)-LVTVSSGGGGSGGGS-Fc (Fc fusion, human)
chain: DIQMTQSPSSLSASVGDRVTITCRASQWIGNLLDWYQQKPGKAPKLLIYYASFLQSGVPSRFSGSGYGTDFTLTISSLQPEDFATYYCQQANPVPPTFGQGTLVTVSSGGGGSGGGSDIQMTQSPSSLSASVGDRVTITCRASQWIGPELSWYQQKPGKAPKLLIYHTSILQSGVPSRFSGSGSGTDFTLTISSLQPEDFATYYCQQYMFQPRTFGQGTLVTVSSGGGGSGG[letters of human IgG1 Fc and a few adjoining residues omitted]
notes: domain: -CH2-CH3 of human IgG1
Assay dAb1 [1]: 5.7 nM | Assay dAb2 (VEGF-165): 0.2 nM

B2: DOM15-10 (VK)-LVTVSSGGGGSGGGS-DOM16-39-601 (VK)-LVTVSSGGGGSGGGS-Fc (Fc fusion, human)
chain: DIQMTQSPSSLSASVGDRVTITCRASQWIGPELSWYQQKPGKAPKLLIYHTSILQSGVPSRFSGSGSGTDFTLTISSLQPEDFATYYCQQYMFQPRTFGQGTLVTVSSGGGGSGGGSDIQMTQSPSSLSASVGDRVTITCRASQWIGNLLDWYQQKPGKAPKLLIYYASFLQSGVPSRFSGSGYGTDFTLTISSLQPEDFATYYCQQANPVPPTFGQGTLVTVSSGGGGSGG[letters of human IgG1 Fc and a few adjoining residues omitted]
notes: as for B1
Assay dAb2 [1]: 3.1 nM | Assay dAb1 (VEGF-165): 0.8 nM

B3: DOM15-10 (VK)-KVEIKRTVAAPS-DOM16-39-601 (VK)-KVEIKRTVAAPS-Fc (Fc fusion, human)
chain: DIQMTQSPSSLSASVGDRVTITCRASQWIGPELSWYQQKPGKAPKLLIYHTSILQSGVPSRFSGSGSGTDFTLTISSLQPEDFATYYCQQYMFQPRTFGQGTKVEIKRTVAAPSDIQMTQSPSSLSASVGDRVTITCRASQWIGNLLDWYQQKPGKAPKLLIYYASFLQSGVPSRFSGSGYGTDFTLTISSLQPEDFATYYCQQANPVPPTFGQGTKVEIKRTVAA[letters of human IgG1 Fc and a few adjoining residues omitted]
notes: domain: -CH2-CH3 of human IgG1; The natural linker overlaps the C-terminus of the Vk dAb entry
Assay dAb2 [1]: 2.9 nM | Assay dAb1 (VEGF-165): 0.2 nM

B4: DOM15-10 (VK)-KVEIKRTVAAPS-DOM16-39-206 (VK)-KVEIKRTVAAPS-Fc (Fc fusion)
chain: DIQMTQSPSSLPASVGDRVTITCRASQWIGPELSWYQQKPGKAPKLLIYHTSILQSGVPSRFSGSGSGTDFTLTISSLQPEDFATYYCQQYMFQPRTFGQGTKVEIKRTVAAPSDIQMTQSPSSLSASVGDRVTITCRASQWIGINLDWYQQKPGKAPKLLIYYASFLQSGVPSRFSGSGSGTDFTLTISSLQPEDFATYYCQQANPAPLTFGQGTKVEIKRTVAAP[letters of human IgG1 Fc and a few adjoining residues omitted]
notes: Expressed in HEK 293T cells; also called TAR15-10 fused to DOM16-39-206 and to Fc
Assay dAb2 [1]: 23.8 nM

B5: DOM16-39-206 (VK)-KVEIKRTVAAPS-DOM15-10 (VK)-KVEIKRTVAAPS-Fc (Fc fusion)
chain: DIQMTQSPSSLPASVGDRVTITCRASQWIGINLDWYQQKPGKAPKLLIYYASFLQSGVPSRFSGSGSGTDFTLTISSLQPEDFATYYCQQANPAPLTFGQGTKVEIKRTVAAPSDIQMTQSPSSLSASVGDRVTITCRASQWIGPELSWYQQKPGKAPKLLIYHTSILQSGVPSRFSGSGSGTDFTLTISSLQPEDFATYYCQQYMFQPRTFGQGTKVEIKRTVAAP[letters of human IgG1 Fc and a few adjoining residues omitted]
notes: also called DOM16-39-206 fused to TAR15-10 and to Fc
Assay dAb1 [1]: 3.7 nM | Assay dAb2 (VEGF-165): 0.88 nM

B6: DOM16-39-206 (VK)-KVEIKRTVAAPS-DOM15-26-501 (VH)-…-Fc (Fc fusion)
chain: DIQMTQSPSSLSASVGDRVTITCRASQWIGINLDWYQQKPGKAPKLLIYYASFLQSGVPSRFSGSGSGTDFTLTISSLQPEDFATYYCQQANPAPLTFGQGTKVEIKRTVAAPSEVQLLESGGGLVQPGGSLRLSCAASGFTFKAYPIMWVRQAPGKGLEWVSEISPSGSYTYYADSVKGRFTISRDNSKNTLYLQMNSLRAEDTAVYYCAKDPRKFDYWGQGTLVTVSSASTKGP[letters of human IgG1 Fc and a few adjoining residues omitted]
notes: also called DOM16-39-206 fused to TAR15-26-501 and to Fc
Assay dAb2 (VEGF-165): 21.3 nM

B7: DOM15-26-501 (VH)-LVTVSSASTKGPS-DOM16-39-206 (VK)-…-Fc (Fc fusion)
chain: EVQLLESGGGLVQPGGSLRLSCAASGFTFKAYPIMWVRQAPGKGLEWVSEISPSGSYTYYADSVKGRFTISRDNSKNTLYLQMNSLRAEDTAVYYCAKDPRKFDYWGQGTLVTVSSASTKGPSDIQMTQSPSSLSASVGDRVTITCRASQWIGINLDWYQQKPGKAPKLLIYYASFLQSGVPSRFSGSGSGTDFTLTISSLQPEDFATYYCQQANPAPLTFGQGTKVEIKRTVAAP[letters of human IgG1 Fc and a few adjoining residues omitted]
notes: also called TAR15-26-501 fused to DOM16-39-206 and to Fc
Assay dAb1 (VEGF-165): 5.7 nM

B8: DOM16-39-601 (VK)-LVTVSSAST-DOM15-10 (VK)-LVTVSSAST-Fc (Fc fusion, human)
chain: DIQMTQSPSSLSASVGDRVTITCRASQWIGNLLDWYQQKPGKAPKLLIYYASFLQSGVPSRFSGSGYGTDFTLTISSLQPEDFATYYCQQANPVPPTFGQGTLVTVSSASTDIQMTQSPSSLSASVGDRVTITCRASQWIGPELSWYQQKPGKAPKLLIYHTSILQSGVPSRFSGSGSGTDFTLTISSLQPEDFATYYCQQYMFQPRTFGQGTLVTVSSA[letters of human IgG1 Fc and a few adjoining residues omitted]
notes: domain: -CH2-CH3 of human IgG1; The printed linkers include C-terminal residues of a V domain (LVTVSS of VH, KVEIKR of Vk)
Assay dAb1 [1]: 0.68 nM | Assay dAb2 (VEGF-165): 10.8 nM

B9: DOM16-39-601 (VK)-KVEIKRTVAAPS-DOM15-10 (VK)-KVEIKRTVAAPS-Fc (Fc fusion, human)
chain: DIQMTQSPSSLSASVGDRVTITCRASQWIGNLLDWYQQKPGKAPKLLIYYASFLQSGVPSRFSGSGYGTDFTLTISSLQPEDFATYYCQQANPVPPTFGQGTKVEIKRTVAAPSDIQMTQSPSSLSASVGDRVTITCRASQWIGPELSWYQQKPGKAPKLLIYHTSILQSGVPSRFSGSGSGTDFTLTISSLQPEDFATYYCQQYMFQPRTFGQGTKVEIKRTVAA[letters of human IgG1 Fc and a few adjoining residues omitted]
notes: domain: -CH2-CH3 of human IgG1; plain joining of the parts may double those residues
Assay dAb1 [1]: 0.77 nM | Assay dAb2 (VEGF-165): 2.9 nM

B10: DOM15-10 (VK)-LVTVSSAST-DOM16-39-601 (VK)-LVTVSSAST-Fc (Fc fusion, human)
chain: DIQMTQSPSSLSASVGDRVTITCRASQWIGPELSWYQQKPGKAPKLLIYHTSILQSGVPSRFSGSGSGTDFTLTISSLQPEDFATYYCQQYMFQPRTFGQGTLVTVSSASTDIQMTQSPSSLSASVGDRVTITCRASQWIGNLLDWYQQKPGKAPKLLIYYASFLQSGVPSRFSGSGYGTDFTLTISSLQPEDFATYYCQQANPVPPTFGQGTLVTVSSA[letters of human IgG1 Fc and a few adjoining residues omitted]
notes: as for B1
Assay dAb2 [1]: 4.2 nM | Assay dAb1 (VEGF-165): 1.2 nM

Reference: patent US20100056439A1 (DOMANTIS, published 2010)
